Measured values: US20250012721A1, “FLUORESCENCE DETECTION KIT FOR ACTIVATED COMPLEMENT C1s, DETECTION METHOD USING SAME, AND USE THEREOF” (JIANGSU UNIVERSITY, priority 2022, published 2025)

Experiments:
Test in all cases: Indirect ELISA, antigen-binding specificity of C1s recombinant antibody
Conditions in all cases: OD 450 nm, FIG. 5
[1] = target: T1, single-stranded unactivated C1s protein (Homo sapiens, UniProt P09871)
T1 construct: purchased Complement Technology
T1 sequence (P09871 16-688): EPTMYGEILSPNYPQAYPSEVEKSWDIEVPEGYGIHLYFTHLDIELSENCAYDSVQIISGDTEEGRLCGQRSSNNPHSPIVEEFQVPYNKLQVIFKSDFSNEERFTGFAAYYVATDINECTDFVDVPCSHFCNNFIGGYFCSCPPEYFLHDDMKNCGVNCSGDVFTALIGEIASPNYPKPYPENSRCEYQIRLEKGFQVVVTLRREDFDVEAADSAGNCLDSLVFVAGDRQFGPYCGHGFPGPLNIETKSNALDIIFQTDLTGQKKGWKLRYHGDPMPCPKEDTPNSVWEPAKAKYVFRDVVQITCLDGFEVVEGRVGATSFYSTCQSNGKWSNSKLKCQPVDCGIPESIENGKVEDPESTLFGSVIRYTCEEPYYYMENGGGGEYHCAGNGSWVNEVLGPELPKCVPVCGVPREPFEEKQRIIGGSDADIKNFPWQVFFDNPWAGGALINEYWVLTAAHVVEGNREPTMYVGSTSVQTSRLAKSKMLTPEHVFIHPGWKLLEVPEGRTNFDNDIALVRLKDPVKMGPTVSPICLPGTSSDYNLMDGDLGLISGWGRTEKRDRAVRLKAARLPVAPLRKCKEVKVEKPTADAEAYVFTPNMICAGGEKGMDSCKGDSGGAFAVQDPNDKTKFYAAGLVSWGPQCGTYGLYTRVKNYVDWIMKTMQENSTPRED
Method: (§1) In this example, the antigen-binding specificity of the C1s recombinant antibody was analyzed by an indirect ELISA method according to the principle of the specificity detection of the C1s recombinant antibody shown in FIG. 4. An analysis method included the following steps:
(§2) 200 μL (1 μg/ml) of C1s antigen (single-stranded unactivated C1s protein, double-stranded activated C1s protein, or C1r protein) was added respectively to wells of a microtiter plate, and the microtiter plate was gently shaken to make the antigen cover a well bottom of the microtiter plate. Incubation was performed overnight at 4° C. After washing the plate 3 times with a warm PBS, 200 μL of a blocking solution (10 mM PBS, 1% BSA, 0.1% casein) was added to perform blocking. Incubation was next performed at 37° C. for 1 h. The plate was washed 5 times with PBS. 100 μL of the C1s recombinant antibody was added in each well (an initial concentration of a first well was 10 μg/mL, then diluted down to 7 wells according to a ratio of ¼ gradient to set up duplicate wells), incubation was performed at 37° C. for 1 h. The liquid in the microtiter plate was spin-dried, and the plate was washed with 200 μL of warm PBS 5 times. 100 μL of a diluted secondary antibody (Goat anti-Human IgG-HRP) was added to each well of the microtiter plate. Incubation was performed for 30 min at 37° C. The liquid in the microtiter plate was spin-dried, and the plate was washed with 200 μL of warm PBS 5 times. 100 μL of a chromogenic solution (TMB) was added to each well for a chromogenic reaction, and after incubation at 37° C. for 10 min, 50 μL of a stop solution (0.25 M HCl) was finally added to terminate the chromogenic reaction. An optical density (OD) was read at 450 nm on the microplate reader.

C1r protein = target: T2, C1r protein (Homo sapiens, UniProt P00736)
T2 construct: purchased Complement Technology
T2 sequence (P00736 18-705): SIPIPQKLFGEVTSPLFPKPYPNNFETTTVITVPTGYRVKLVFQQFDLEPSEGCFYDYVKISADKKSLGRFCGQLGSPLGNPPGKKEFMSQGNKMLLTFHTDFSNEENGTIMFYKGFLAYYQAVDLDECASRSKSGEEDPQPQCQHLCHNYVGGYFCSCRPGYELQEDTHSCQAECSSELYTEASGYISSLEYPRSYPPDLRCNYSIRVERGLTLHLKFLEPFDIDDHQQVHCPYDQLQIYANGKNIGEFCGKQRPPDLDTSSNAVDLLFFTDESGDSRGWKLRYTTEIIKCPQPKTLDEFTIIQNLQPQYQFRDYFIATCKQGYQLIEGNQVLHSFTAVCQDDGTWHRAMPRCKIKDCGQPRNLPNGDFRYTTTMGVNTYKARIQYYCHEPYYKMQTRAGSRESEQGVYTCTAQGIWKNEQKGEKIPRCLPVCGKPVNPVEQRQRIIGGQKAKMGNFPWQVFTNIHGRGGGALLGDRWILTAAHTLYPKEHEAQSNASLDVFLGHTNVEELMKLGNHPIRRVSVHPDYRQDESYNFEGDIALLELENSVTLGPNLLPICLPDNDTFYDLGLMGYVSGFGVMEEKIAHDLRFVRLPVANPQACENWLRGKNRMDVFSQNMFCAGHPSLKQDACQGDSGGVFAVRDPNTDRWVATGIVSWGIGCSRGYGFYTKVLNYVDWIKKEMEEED
Method: as §1, §2

[2] = target: T3, double-stranded activated C1s protein (Homo sapiens, UniProt P09871)
T3 construct: purchased Complement Technology
T3 sequence (P09871 16-437 limits assumed): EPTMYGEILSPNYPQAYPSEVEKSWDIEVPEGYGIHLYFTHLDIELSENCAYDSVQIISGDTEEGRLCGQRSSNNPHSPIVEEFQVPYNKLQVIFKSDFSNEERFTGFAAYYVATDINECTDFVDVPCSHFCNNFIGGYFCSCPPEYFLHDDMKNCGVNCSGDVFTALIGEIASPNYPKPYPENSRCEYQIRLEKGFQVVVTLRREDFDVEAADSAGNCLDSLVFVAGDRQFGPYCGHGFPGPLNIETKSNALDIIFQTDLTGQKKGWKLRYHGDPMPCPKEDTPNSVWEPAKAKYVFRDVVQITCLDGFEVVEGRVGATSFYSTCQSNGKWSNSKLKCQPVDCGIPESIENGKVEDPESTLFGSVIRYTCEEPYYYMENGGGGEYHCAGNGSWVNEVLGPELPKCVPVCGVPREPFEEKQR
T3 sequence (P09871 438-688 limits assumed): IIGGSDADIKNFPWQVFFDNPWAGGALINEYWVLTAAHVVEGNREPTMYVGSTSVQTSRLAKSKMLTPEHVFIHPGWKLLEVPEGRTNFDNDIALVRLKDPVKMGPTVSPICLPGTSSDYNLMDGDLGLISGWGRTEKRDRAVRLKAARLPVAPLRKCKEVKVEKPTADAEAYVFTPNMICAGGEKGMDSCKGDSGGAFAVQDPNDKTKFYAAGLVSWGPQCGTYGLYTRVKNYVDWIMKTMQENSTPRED
Method: as §1, §2

binding ability [1]: weak binding ability | binding ability (C1r protein): no binding ability | binding ability [2]: strong binding ability
B1: C1s recombinant antibody: Recombinant antibody, heavy chain SEQ ID NO: 1, light chain SEQ ID NO: 2, expressed in HEK293T system (antibody)
heavy: EVQLVESGGGLVKPGGSLRLSCAASGFTFSNYAMSWVRQAPGKGLEWVATISSGGSHTYYLDSVKGRFTISRDNSKNTLYLQMNSLRAEDTALYYCARLFTGYAMDYWGQGTLVTVSSASTKGPSVFPLAPCSRSTSESTAALGCLVKDYFPEPVTVSWNSGALTSGVHTFPAVLQSSGLYSLSSVVTVPSSSLGTKTYTCNVDHKPSNTKVDKRV[human IgG4 Fc with changes not spelt out]
light: QIVLTQSPATLSLSPGERATMSCTASSSVSSSYLHWYQQKPGKAPKLWIYSTSNLASGVPSRFSGSGSGTDYTLTISSLQPEDFATYYCHQYYRLPPITFGQGTKLEIKRTVAAPSVFIFPPSDEQLKSGTASVVCLLNNFYPREAKVQWKVDNALQSGNSQESVTEQDSKDSTYSLSSTLTLSKADYEKHKVYACEVTHQGLSSPVTKSFNRGEC
modifications: The sequence is synthetized.
